For 40 molecules, cytotoxicity call and growth inhibition call results are on record in the antibiotic and cytotoxicity screens of Wong et al. (2023).

Molecules are shown by their SMILES. The list shows a part of the results.

One test relates to HSkMC (human skeletal muscle cells). The test is described as follows: cytotoxicity call (relative viability < 0.9). Conditions: 10 µM.
Turning to `COc1ccc(S(=O)(=O)N[C@@H]2C=C[C@@H](CC(=O)N3CCC(Cc4ccccc4)CC3)O[C@H]2CO)cc1`, the cytotoxicity call was “inactive”.

In the case of `C[C@H]1CN([C@@H](C)CO)C(=O)Cc2cc(NC(=O)c3ccncc3)ccc2O[C@@H]1CN(C)Cc1ccc(-c2ccccc2)cc1`, the cytotoxicity call is “inactive”.

On to `C[C@H](CO)N1C[C@H](C)[C@H](CN(C)Cc2ccc(C(F)(F)F)cc2)Oc2ccc(NC(=O)CCC(F)(F)F)cc2CC1=O`, for which the cytotoxicity call was “inactive”.

For `C=C/C=C/C[C@@H](C)[C@@H](O)[C@H]1C(=O)N[C@@H](CC)C(=O)N(C)CC(=O)N(C)[C@@H](CC(C)C)C(=O)N[C@@H](C(C)C)C(=O)N(C)[C@@H](CC(C)C)C(=O)N[C@@H](C)C(=O)N[C@H](C)C(=O)N(C)[C@@H](CC(C)C)C(=O)N(C)[C@@H](CC(C)C)C(=O)N(C)[C@@H](C(C)C)C(=O)N1C`, the cytotoxicity call was “inactive”.

Consider `COc1ccc(S(=O)(=O)Nc2ccc3c(c2)CC(=O)N([C@@H](C)CO)C[C@H](C)[C@@H](CN(C)Cc2ccc(Cl)c(Cl)c2)O3)cc1`, for which the cytotoxicity call is “inactive”.

Turning to `COc1ccc(NC(=O)N(C)C[C@H]2Oc3ccc(NC(=O)Cn4cnnn4)cc3CC(=O)N([C@@H](C)CO)C[C@@H]2C)cc1`, the cytotoxicity call is “inactive”.

Take `Cc1ccc(S(=O)(=O)N[C@@H]2CC[C@@H](CCNC(=O)CN3CCOCC3)O[C@@H]2CO)cc1`: the cytotoxicity call was “inactive”.

Consider `COCc1cn(CC[C@H]2CC[C@@H](NC(=O)CCN3CCCCC3)[C@H](CO)O2)nn1`, for which the cytotoxicity call was “inactive”.

In the case of `Cc1ccc(S(=O)(=O)N2C[C@@H](O)COC[C@H]3O[C@H](CC(=O)NCCCN(C)C)CC[C@@H]32)cc1`, the cytotoxicity call was “inactive”.

Regarding `COc1ccc(NC(=O)N(C)C[C@H]2OCCCC[C@H](C)Oc3ccc(NS(=O)(=O)c4ccccc4)cc3C(=O)N([C@@H](C)CO)C[C@@H]2C)cc1`, the cytotoxicity call is “inactive”.

`C[C@H](CO)N1C[C@H](C)[C@@H](CN(C)Cc2ccc(C(=O)Nc3ccccc3N)cc2)Oc2c(NC(=O)Nc3ccccc3)cccc2C1=O`: the cytotoxicity call is “inactive”.

On to `O=C(CN1CCOCC1)N[C@H]1CC[C@H](CCn2cc(C3CCCC3)nn2)O[C@@H]1CO`, for which the cytotoxicity call is “inactive”.

Turning to `CCn1c(Cl)nc2c1c(=O)n(C)c(=O)n2C`, the cytotoxicity call is “inactive”.

Regarding `Cc1ccc(S(=O)(=O)N(C)C[C@H]2OCCCC[C@@H](C)Oc3ccc(NC(=O)C4CCCCC4)cc3C(=O)N([C@@H](C)CO)C[C@H]2C)cc1`, the cytotoxicity call was “inactive”.

For `C[C@@H]1CN([C@H](C)CO)C(=O)c2cccc(NS(=O)(=O)c3ccc(F)cc3)c2O[C@@H]1CN(C)Cc1ccc(Cl)c(Cl)c1`, the cytotoxicity call was “inactive”.

Take `O=C(Oc1cc(O)cc2c1C[C@@H](OC(=O)c1cc(O)c(O)c(O)c1)[C@@H](c1cc(O)c(O)c(O)c1)O2)c1cc(O)c(O)c(O)c1`: the cytotoxicity call was “inactive”.

Turning to `Cc1noc(C)c1NC(=O)Nc1ccc2c(c1)C(=O)N([C@H](C)CO)C[C@@H](C)[C@H](CN(C)Cc1ccccc1)OCCCC[C@H](C)O2`, the cytotoxicity call is “inactive”.

Regarding `CN1CCN(C(=O)C[C@H]2CC[C@@H]3[C@H](COC[C@H](O)CN3S(=O)(=O)c3cccc(Cl)c3)O2)CC1`, the cytotoxicity call is “inactive”.

As for `COCCOC(=O)N1C(=O)[C@@]2(c3cc(C#Cc4ccc(OC)cc4)ccc31)[C@H](C(=O)N1CCCCCCC1)[C@H]1C(=O)O[C@H](c3ccccc3)[C@H](c3ccccc3)N1[C@@H]2c1ccc(O)cc1`, the cytotoxicity call is “inactive”.

Consider `C[C@@H]1CN([C@H](C)CO)C(=O)Cc2cc(NC(=O)C3CCCCC3)ccc2O[C@H]1CN(C)Cc1ccc(C(F)(F)F)cc1`, for which the cytotoxicity call was “inactive”.

Turning to `COc1ccc(S(=O)(=O)N(C)C[C@@H]2Oc3ccc(NC(=O)NC(C)C)cc3C(=O)N([C@H](C)CO)C[C@H]2C)cc1`, the cytotoxicity call is “inactive”.

Regarding `COc1ccc(NC(=O)Nc2ccc3c(c2)C(=O)N([C@@H](C)CO)C[C@@H](C)[C@H](CN(C)Cc2ccc(C(F)(F)F)cc2)OCCCC[C@H](C)O3)cc1`, the cytotoxicity call is “inactive”.

On to `COc1ccc(C(=O)NCc2ccc(OCCN(C)C)cc2)cc1OC`, for which the cytotoxicity call is “inactive”.

Regarding `COc1ccc(NC(=O)Nc2ccc3c(c2)C(=O)N([C@H](C)CO)C[C@@H](C)[C@H](CN(C)Cc2ccc(Cl)c(Cl)c2)O3)cc1`, the cytotoxicity call is “inactive”.

As for `C[C@@H]1CN([C@@H](C)CO)C(=O)c2cc(NC(=O)Cn3cnnn3)ccc2O[C@H]1CN(C)Cc1ccc(C(=O)Nc2ccccc2N)cc1`, the cytotoxicity call was “inactive”.

For the molecule `N#Cc1cccc(NCCN2CCNC2=O)n1`, the cytotoxicity call was “inactive”.

For `Cc1noc(C)c1NC(=O)N(C)C[C@@H]1Oc2cc(C#CCN(C)C)ccc2S(=O)(=O)N([C@@H](C)CO)C[C@H]1C`, the cytotoxicity call is “inactive”.

As for `C[C@@H]1CN([C@H](C)CO)C(=O)c2cc(NS(=O)(=O)c3ccc(F)cc3)ccc2O[C@H]1CN(C)Cc1ccc(Oc2ccccc2)cc1`, the cytotoxicity call was “inactive”.

In another test the test system is S. aureus RN4220. Put plainly: growth inhibition call (relative growth <= 0.2). To be noted: 50 µM.
Regarding `CC(C)[C@@H](N)c1nc2ccccc2[nH]1`, the growth inhibition call is “inactive”.

For the molecule `CCOC(=O)c1c(CN2CCN(c3ccccc3)CC2)n(-c2ccccc2)c2cc(Br)c(OC)cc12`, the growth inhibition call is “inactive”.

As to `C[C@@H]1CN([C@H](C)CO)C(=O)c2cccc(NC(=O)C3CCCCC3)c2O[C@@H]1CN(C)S(=O)(=O)c1cn(C)cn1`, the growth inhibition call was “inactive”.

For `C[C@@H]1CN([C@H](C)CO)S(=O)(=O)c2ccc(C#C[C@@H](C)O)cc2O[C@@H]1CN(C)C(=O)C1CCCCC1`, the growth inhibition call was “inactive”.

For `COc1ccc([C@@H](N)c2ccccc2)cc1`, the growth inhibition call was “inactive”.

With `CC(C)NC(=O)N(C)C[C@H]1Oc2c(NC(=O)Nc3ccc4c(c3)OCO4)cccc2C(=O)N([C@@H](C)CO)C[C@H]1C`, the growth inhibition call was “inactive”.

For `COc1ccccc1C#Cc1ccc2c(c1)O[C@@H](CN(C)Cc1ccncc1)[C@@H](C)CN([C@@H](C)CO)S2(=O)=O`, the growth inhibition call was “inactive”.

On to `COC(=O)C[C@@H]1CC[C@H]2[C@H](COc3ccc(NS(=O)(=O)c4ccccc4Cl)cc3C(=O)N2C)O1`, for which the growth inhibition call is “inactive”.

As for `Cc1ccc(S(=O)(=O)Nc2ccc3c(c2)C(=O)N([C@@H](C)CO)C[C@H](C)[C@H](CN(C)C(=O)C2CCCCC2)OCCCC[C@@H](C)O3)cc1`, the growth inhibition call was “inactive”.

In the case of `COc1ccc(S(=O)(=O)Nc2ccc3c(c2)CC(=O)N([C@H](C)CO)C[C@H](C)[C@H](CN(C)S(=O)(=O)c2ccc(C)cc2)O3)cc1`, the growth inhibition call was “inactive”.

Consider `Cc1ccc(S(=O)(=O)N(C)C[C@@H]2Oc3ccc(NC(=O)Cn4cnnn4)cc3CC(=O)N([C@@H](C)CO)C[C@@H]2C)cc1`, for which the growth inhibition call was “inactive”.

For `COc1ccc(NC(=O)Nc2ccc3c(c2)C(=O)N([C@@H](C)CO)C[C@@H](C)[C@H](CN(C)Cc2ccccc2)OCCCC[C@@H](C)O3)cc1`, the growth inhibition call is “inactive”.

On to `COc1ccc(S(=O)(=O)N[C@@H]2C=C[C@@H](CC(=O)N3CCC(Cc4ccccc4)CC3)O[C@H]2CO)cc1`, for which the growth inhibition call is “inactive”.

For the molecule `C[C@H]1CN([C@@H](C)CO)C(=O)Cc2cc(NC(=O)c3ccncc3)ccc2O[C@@H]1CN(C)Cc1ccc(-c2ccccc2)cc1`, the growth inhibition call is “inactive”.

As for `C[C@H](CO)N1C[C@H](C)[C@H](CN(C)Cc2ccc(C(F)(F)F)cc2)Oc2ccc(NC(=O)CCC(F)(F)F)cc2CC1=O`, the growth inhibition call is “inactive”.

Consider `C=C/C=C/C[C@@H](C)[C@@H](O)[C@H]1C(=O)N[C@@H](CC)C(=O)N(C)CC(=O)N(C)[C@@H](CC(C)C)C(=O)N[C@@H](C(C)C)C(=O)N(C)[C@@H](CC(C)C)C(=O)N[C@@H](C)C(=O)N[C@H](C)C(=O)N(C)[C@@H](CC(C)C)C(=O)N(C)[C@@H](CC(C)C)C(=O)N(C)[C@@H](C(C)C)C(=O)N1C`, for which the growth inhibition call is “inactive”.

As for `COc1ccc(S(=O)(=O)Nc2ccc3c(c2)CC(=O)N([C@@H](C)CO)C[C@H](C)[C@@H](CN(C)Cc2ccc(Cl)c(Cl)c2)O3)cc1`, the growth inhibition call was “inactive”.

In the case of `COc1ccc(NC(=O)N(C)C[C@H]2Oc3ccc(NC(=O)Cn4cnnn4)cc3CC(=O)N([C@@H](C)CO)C[C@@H]2C)cc1`, the growth inhibition call is “inactive”.

Consider `Cc1ccc(S(=O)(=O)N[C@@H]2CC[C@@H](CCNC(=O)CN3CCOCC3)O[C@@H]2CO)cc1`, for which the growth inhibition call was “inactive”.

As to `COCc1cn(CC[C@H]2CC[C@@H](NC(=O)CCN3CCCCC3)[C@H](CO)O2)nn1`, the growth inhibition call was “inactive”.

On to `Cc1ccc(S(=O)(=O)N2C[C@@H](O)COC[C@H]3O[C@H](CC(=O)NCCCN(C)C)CC[C@@H]32)cc1`, for which the growth inhibition call is “inactive”.

On to `COc1ccc(NC(=O)N(C)C[C@H]2OCCCC[C@H](C)Oc3ccc(NS(=O)(=O)c4ccccc4)cc3C(=O)N([C@@H](C)CO)C[C@@H]2C)cc1`, for which the growth inhibition call is “inactive”.

For `C[C@H](CO)N1C[C@H](C)[C@@H](CN(C)Cc2ccc(C(=O)Nc3ccccc3N)cc2)Oc2c(NC(=O)Nc3ccccc3)cccc2C1=O`, the growth inhibition call was “inactive”.

For `O=C(CN1CCOCC1)N[C@H]1CC[C@H](CCn2cc(C3CCCC3)nn2)O[C@@H]1CO`, the growth inhibition call is “inactive”.

For the molecule `CCn1c(Cl)nc2c1c(=O)n(C)c(=O)n2C`, the growth inhibition call is “inactive”.

In the case of `Cc1ccc(S(=O)(=O)N(C)C[C@H]2OCCCC[C@@H](C)Oc3ccc(NC(=O)C4CCCCC4)cc3C(=O)N([C@@H](C)CO)C[C@H]2C)cc1`, the growth inhibition call was “inactive”.

As for `C[C@@H]1CN([C@H](C)CO)C(=O)c2cccc(NS(=O)(=O)c3ccc(F)cc3)c2O[C@@H]1CN(C)Cc1ccc(Cl)c(Cl)c1`, the growth inhibition call is “inactive”.

Take `O=C(Oc1cc(O)cc2c1C[C@@H](OC(=O)c1cc(O)c(O)c(O)c1)[C@@H](c1cc(O)c(O)c(O)c1)O2)c1cc(O)c(O)c(O)c1`: the growth inhibition call is “inactive”.

Regarding `Cc1noc(C)c1NC(=O)Nc1ccc2c(c1)C(=O)N([C@H](C)CO)C[C@@H](C)[C@H](CN(C)Cc1ccccc1)OCCCC[C@H](C)O2`, the growth inhibition call is “inactive”.

Turning to `CN1CCN(C(=O)C[C@H]2CC[C@@H]3[C@H](COC[C@H](O)CN3S(=O)(=O)c3cccc(Cl)c3)O2)CC1`, the growth inhibition call was “inactive”.

Consider `COCCOC(=O)N1C(=O)[C@@]2(c3cc(C#Cc4ccc(OC)cc4)ccc31)[C@H](C(=O)N1CCCCCCC1)[C@H]1C(=O)O[C@H](c3ccccc3)[C@H](c3ccccc3)N1[C@@H]2c1ccc(O)cc1`, for which the growth inhibition call was “inactive”.

Take `C[C@@H]1CN([C@H](C)CO)C(=O)Cc2cc(NC(=O)C3CCCCC3)ccc2O[C@H]1CN(C)Cc1ccc(C(F)(F)F)cc1`: the growth inhibition call was “inactive”.
